Measured values from publication PMC4336329 (PLoS ONE, 2015).
About 2,200 (0.71%) of roughly 310,000 compounds showed an effect of 50% or more. The effect is printed as a negative number. This is one part of the list.

Biological target: human ether-à-go-go-related gene (hERG) potassium channel (human, UniProt Q12809)
Experiment: primary screen, population patch clamp on CHO cells stably expressing hERG

Chain of human ether-à-go-go-related gene (hERG) potassium channel (Q12809 whole entry, looked up): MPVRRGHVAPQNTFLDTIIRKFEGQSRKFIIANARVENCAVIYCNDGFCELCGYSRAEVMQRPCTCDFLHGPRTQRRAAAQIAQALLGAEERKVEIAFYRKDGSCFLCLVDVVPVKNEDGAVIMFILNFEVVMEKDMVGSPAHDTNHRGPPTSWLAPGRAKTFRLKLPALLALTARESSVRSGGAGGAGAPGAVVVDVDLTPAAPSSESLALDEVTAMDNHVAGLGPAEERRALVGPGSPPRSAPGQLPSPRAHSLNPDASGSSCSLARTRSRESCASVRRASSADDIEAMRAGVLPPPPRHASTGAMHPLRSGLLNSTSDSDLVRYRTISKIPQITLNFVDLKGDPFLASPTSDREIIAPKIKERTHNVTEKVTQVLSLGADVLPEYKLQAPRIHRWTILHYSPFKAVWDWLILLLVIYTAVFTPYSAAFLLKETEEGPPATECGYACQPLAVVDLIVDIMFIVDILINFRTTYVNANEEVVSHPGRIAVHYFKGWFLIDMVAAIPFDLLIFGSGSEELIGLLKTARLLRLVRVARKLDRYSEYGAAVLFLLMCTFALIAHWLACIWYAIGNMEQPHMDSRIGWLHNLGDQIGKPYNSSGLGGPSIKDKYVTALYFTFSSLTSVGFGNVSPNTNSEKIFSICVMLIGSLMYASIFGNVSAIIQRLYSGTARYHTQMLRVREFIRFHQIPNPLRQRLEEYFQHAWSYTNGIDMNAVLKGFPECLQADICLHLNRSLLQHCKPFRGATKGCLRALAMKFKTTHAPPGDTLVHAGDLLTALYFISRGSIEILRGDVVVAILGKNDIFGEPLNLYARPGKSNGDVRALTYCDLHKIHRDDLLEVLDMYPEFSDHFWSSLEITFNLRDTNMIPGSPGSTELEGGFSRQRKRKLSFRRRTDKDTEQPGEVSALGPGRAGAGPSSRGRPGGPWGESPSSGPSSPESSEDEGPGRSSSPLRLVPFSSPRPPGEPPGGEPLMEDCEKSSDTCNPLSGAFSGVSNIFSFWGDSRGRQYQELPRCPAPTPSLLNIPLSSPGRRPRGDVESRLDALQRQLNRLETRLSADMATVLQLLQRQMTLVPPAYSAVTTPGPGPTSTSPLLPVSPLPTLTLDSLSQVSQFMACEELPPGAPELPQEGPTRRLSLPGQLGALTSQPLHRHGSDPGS

For `Nc1ccc(OC(=O)Nc2ccc(O)cc2)cc1`, which “hERG current change (%, negative = inhibition) at 1uM” value is on record?
Its value is 8.06%.

For `O=C1CC(c2cccc([N+](=O)[O-])c2)c2cc3c(cc2N1)CCC3` (stereo not drawn), which “hERG current change (%, negative = inhibition) at 1uM” value is on record?
The value was 9.55%.

How did the “hERG current change (%, negative = inhibition) at 1uM” value turn out when `O=C(Nc1ccccc1)C1=C[C@@H](C2CC2)C[C@@H](OCCCCO)O1` was run?
Its value is 8.07%.

How did the “hERG current change (%, negative = inhibition) at 1uM” value turn out when `O=C(NC12CC3CC(CC(C3)C1)C2)N1CCN(c2nc(-c3ccccc3)cs2)CC1` was run?
The value was 10.7%.

For `CC(C)OC(=O)CSc1nc(C(C)C)nc2ccccc12`, which “hERG current change (%, negative = inhibition) at 1uM” value is on record?
The value was 13.3%.

`CCOC(=O)CCc1c(C)c(C#N)c2[nH]c3ccccc3n2c1=O` was tested. Which “hERG current change (%, negative = inhibition) at 1uM” value did it give?
The value was 0.662%.

Which “hERG current change (%, negative = inhibition) at 1uM” value does the source give for `CCOC(=O)N1CCC2(O)CCCCC2C1c1ccc(F)cc1` (stereo not drawn) here?
Its value is 13.1%.

Which “hERG current change (%, negative = inhibition) at 1uM” value does the source give for `CCOc1ccc(-n2c(C)nc3cc(C(=O)NCCN4CCOCC4)ccc32)cc1` here?
Its value is -3.45%.

`CN(NC(=O)Nc1ccc(Cl)cc1)c1c(Cl)c(Cl)nn1C` was tested. Which “hERG current change (%, negative = inhibition) at 1uM” value did it give?
The value was 10.6%.

How did the “hERG current change (%, negative = inhibition) at 1uM” value turn out when `O=c1[nH]c(=O)n(-c2ccc(F)cc2)c2c1C(C(F)(F)F)(C(F)(F)F)N=C(c1ccc(F)cc1)N2` was run?
Its value is 4.49%.

With `CC(C)Cn1c(SC(C)C(=O)NC2CC2)nnc1-c1ccccc1F` (stereo not drawn) as the molecule, how does the “hERG current change (%, negative = inhibition) at 1uM” value read?
The value was 5.43%.

For `COc1ccc([N+](=O)[O-])cc1/C=N/NC(=O)CNC(=O)C(c1ccccc1)c1ccccc1`, which “hERG current change (%, negative = inhibition) at 1uM” value is on record?
The value was 7.17%.

For `CCO[C@H]1OC(C(=O)N2CCN(C)CC2)=C[C@@H](C)[C@@H]1CCCO`, which “hERG current change (%, negative = inhibition) at 1uM” value is on record?
Its value is 10.6%.

For `COCCCNC(=O)[C@H](Cc1c[nH]c2ccccc12)NC(=O)OCc1ccccc1`, which “hERG current change (%, negative = inhibition) at 1uM” value is on record?
The value was 7.4%.

`CC(C#N)(NC(=O)CN1CCN(S(=O)(=O)c2ccc(Br)cc2Cl)CC1)C1CC1` (stereo not drawn) was tested. Which “hERG current change (%, negative = inhibition) at 1uM” value did it give?
Its value is -1.16%.

With `Clc1ccccc1CN1CCC(Cc2ccccc2)CC1` as the molecule, how does the “hERG current change (%, negative = inhibition) at 1uM” value read?
The value was -1.9%.

For `Cc1ccc(N=Cc2ccc(N(C)C)cc2)cc1`, which “hERG current change (%, negative = inhibition) at 1uM” value is on record?
Its value is -3.31%.

With `CCN(CC1CCCO1)C(=O)CCc1nnc(CCc2ccc(OC)cc2)o1` (stereo not drawn) as the molecule, how does the “hERG current change (%, negative = inhibition) at 1uM” value read?
Its value is 17.4%.

`Cc1nc2c(sc(=S)n2Cc2ccco2)c(=O)n1CC(=O)Nc1ccccc1` was tested. Which “hERG current change (%, negative = inhibition) at 1uM” value did it give?
The value was -8.64%.

How did the “hERG current change (%, negative = inhibition) at 1uM” value turn out when `O=C(CN1C(=O)NC2(CCCc3ccccc32)C1=O)Nc1ccccc1OC(F)F` (stereo not drawn) was run?
The value was 7.85%.

With `COc1ccccc1N1C(=O)c2ccc(C(=O)Nc3cccc(C(C)=O)c3)cc2C1=O` as the molecule, how does the “hERG current change (%, negative = inhibition) at 1uM” value read?
Its value is 7.08%.

How did the “hERG current change (%, negative = inhibition) at 1uM” value turn out when `O=C(Oc1cccc(O)c1)C1CCCCC1` was run?
The value was 9.61%.

With `NCC(c1ccc(Cl)cc1Cl)c1c[nH]c2ccccc12` (stereo not drawn) as the molecule, how does the “hERG current change (%, negative = inhibition) at 1uM” value read?
Its value is 17.2%.

`Cc1ccc(SCC(=O)Nc2oc(C)c3c(C)n[nH]c(=O)c23)cc1C` was tested. Which “hERG current change (%, negative = inhibition) at 1uM” value did it give?
Its value is 1.81%.
